{"source": "PubChem BioAssay AID651820", "about": "(National Center for Advancing Translational Sciences (NCATS), 2012)", "note": "Several values for one entry are separate records, joined by “and”; a condition that tells them apart may be missing. Equal entries are not always repeated. Screen size: about 340,000 compounds; about 12,000 (3.5%) were called active. Inconclusive results, whose numbers are uncertain, are shown with a selection of clear calls. The call rests on the fitted dose curve; in most records, active means well fitted inhibition curve with a large enough effect; inconclusive means small, poorly fitted or top-dose-only effect, or another doubt; inactive means no such curve, though single readings can be large or run the other way. Potencies beside an inconclusive call are fits to weak or partial responses and may not hold up.", "data": [{"experiment": "qHTS Assay for Inhibitors of Hepatitis C Virus (HCV); further: potency means the concentration at half of the fitted maximal effect; tags describe the fitted curve by direction and shape", "settings": "Huh7.5.1 HCVcc-Cre (HCVcc is cell-culture hepatitis C virus) infection, luciferase reporter, 44 h; series mostly up to 41.8 µM", "method_in_brief": "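Seed cells (1,000/well) for 4 h; treat with compound and infect with HCVcc-Cre, moi about 0.5. Incubate 44 h, then detect luciferase activity.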", "values": [{"molecule": "CCOC(=O)C1(CC)NC(c2ccco2)C2C(=O)N(CC)C(=O)C21", "note": "(stereo not given)", "Potency": "inactive"}, {"molecule": "Cc1cc(C)n(C(=O)CNC(=O)c2ccc(Cl)cc2Cl)n1", "Potency": "inactive"}, {"molecule": "CCCSCC(=O)Nc1ncc2c(n1)-c1ccccc1CC2", "Potency": "inactive"}, {"molecule": "COc1ccc(S(=O)(=O)N(C)C[C@H]2Oc3ccc(NC(=O)CCC(F)(F)F)cc3C(=O)N([C@H](C)CO)C[C@@H]2C)cc1", "Potency": "inactive"}, {"molecule": "CC(=O)c1c(C)nc2ccc([N+](=O)[O-])cc2c1-c1ccccc1", "Potency": "inconclusive: 31.6 µM [inhibitor, single point]"}, {"molecule": "C=CCC1(CC=C)CCCN1C(=O)CC1C(=O)NCCN1Cc1cc(OC)cc(OC)c1", "note": "(stereo not given)", "Potency": "inactive"}, {"molecule": "O=C(N/N=C/c1ccc([N+](=O)[O-])cc1)c1cc(C2CC2)nc2ccccc12", "Potency": "inconclusive: 8.91 µM [inhibitor, partial curve]"}, {"molecule": "CCOc1ccc(N2CSC(=S)N(c3ccc(OCC)cc3)C2)cc1", "Potency": "inconclusive: 31.6 µM [inhibitor, single point]"}, {"molecule": "CCN(CC)CCOC(=O)c1ccc(NC(=O)CCCN2C(=O)S/C(=C/c3ccc(OC)cc3)C2=S)cc1", "Potency": "active: 14.1 µM"}, {"molecule": "CN(C[C@@H](Cc1cccc2ccccc12)N(C[C@H](Cc1ccccc1)N(CCc1ccccc1)N=O)N=O)N=O", "Potency": "inactive"}, {"molecule": "N#Cc1ccc(Nc2nc(-c3ccc(O)cc3O)cs2)cc1C(F)(F)F", "Potency": "active: 11.2 µM"}, {"molecule": "CCNS(=O)(=O)c1ccc(CCC(=O)O)cc1", "Potency": "active: 10 µM"}, {"molecule": "CCOC(=O)C1(CCc2ccccc2)CCN(C(=O)CN2CCOC2=O)CC1", "Potency": "inactive"}, {"molecule": "NC(=O)CSc1nnc(-c2ccccn2)n1N", "Potency": "inactive"}, {"molecule": "CCOc1ccc(S(=O)(=O)N2CCCC(C(=O)N3CCN(CC)CC3)C2)cc1Cl", "note": "(stereo not given)", "Potency": "inconclusive: 10 µM [inhibitor, partial curve]"}, {"molecule": "COc1ccc(NC(=S)N(CCc2ccc(OC)c(OC)c2)Cc2ccccn2)cc1", "Potency": "inactive"}, {"molecule": "Cc1ccccc1CC1CCN(CCCNC(=O)Nc2ccccc2)CC1", "Potency": "inconclusive: 8.91 µM [inhibitor, partial curve]"}, {"molecule": "Cc1ccc(C(O)(C(=O)NNc2ccc3ccccc3n2)c2ccc(C)cc2)cc1", "Potency": "inactive and inconclusive: 31.6 µM [inhibitor, single point]"}, {"molecule": "C=CCC[C@H](Cc1ccc(F)cc1)C(=O)OC[C@H](Cc1c[nH]c2ccccc12)NC(=O)[C@@H](CC=C)CC(=O)N[C@@H](CO)Cc1ccccc1", "Potency": "inconclusive: 31.6 µM [inhibitor, single point]"}, {"molecule": "COc1ccc(S(=O)(=O)N(C(C)=O)c2ccc(OC(C)=O)c3ccccc23)cc1[N+](=O)[O-]", "Potency": "inconclusive: 22.4 µM [inhibitor, single point]"}, {"molecule": "Cc1ccc(C)c(N2CCN(C(=O)c3ccc4nc(N5CCOCC5)sc4c3)CC2)c1", "Potency": "inactive"}, {"molecule": "O=[N+]([O-])c1ccc(C2(O)CN(c3ccccc3)C3=[N+]2CCS3)cc1", "note": "(stereo not given)", "Potency": "inconclusive: 31.6 µM [inhibitor, single point]"}, {"molecule": "CN(C)C(=O)COC(=O)c1ccc(S(=O)(=O)NCc2ccco2)cc1", "Potency": "inactive"}, {"molecule": "COc1ccc(-c2csc(N(CC3CCCO3)C(=O)c3cccs3)n2)cc1", "note": "(stereo not given)", "Potency": "inconclusive: 8.91 µM [inhibitor, partial curve]"}, {"molecule": "O=C(CCN1C(=O)/C(=C/c2ccccc2)SC1=S)NCCc1ccc(O)cc1", "Potency": "inconclusive: 31.6 µM [inhibitor, single point]"}, {"molecule": "CCOc1ccc(Nc2cc(C)nc(-n3nc(C)cc3C)n2)cc1", "Potency": "inconclusive: 25.1 µM [inhibitor, partial curve]"}, {"molecule": "O=C(CCc1ccccc1)NCc1ccccn1", "Potency": "inactive"}, {"molecule": "O=[N+]([O-])c1ccccc1-c1ccc(C(=S)N2CCN(c3ccccc3)CC2)o1", "Potency": "inconclusive: 14.1 µM [inhibitor, single point]"}, {"molecule": "Cc1ccc2c(c1)[C@H]1[C@H](CO2)[C@H](c2ccccc2)[C@]2(C)C(=O)Nc3cc(Cl)ccc3C(=O)N12", "Potency": "inconclusive: 22.4 µM [inhibitor, single point]"}, {"molecule": "Cc1cccc(-n2ncc3c(NCc4ccccc4)ncnc32)c1", "Potency": "inconclusive: 5.01 µM [inhibitor, full curve]"}, {"molecule": "C=CCN(c1ccccc1)S(=O)(=O)c1cccc(C(=O)Nc2cccc(C)n2)c1", "Potency": "active: 14.1 µM"}, {"molecule": "O=C(Nc1ccc(-c2nnn(CC(=O)N3CCN(C(=O)c4ccco4)CC3)n2)cc1)c1ccc(F)cc1", "Potency": "active: 10 µM"}, {"molecule": "COc1ccc(C(CNC(=O)COc2ccccc2)N2CCCCC2)cc1", "note": "(stereo not given)", "Potency": "inconclusive: 31.6 µM [inhibitor, single point]"}, {"molecule": "COc1cccc(C(=O)NN2C(=O)C3C4C=CC(O4)C3C2=O)c1", "note": "(stereo not given)", "Potency": "inactive"}, {"molecule": "CC(=O)N1c2ccc(S(=O)(=O)N3CCC(C(=O)Nc4ccc(C)cn4)CC3)cc2CC1C", "note": "(stereo not given)", "Potency": "active: 11.2 µM"}, {"molecule": "Cc1cc(N/N=C/c2ccccc2Cl)nc(NCc2ccccc2)n1", "Potency": "inconclusive: 11.2 µM [inhibitor, partial curve]"}, {"molecule": "Cc1ccc(NC(=O)N2CCC(NC(=O)c3cccc(F)c3)CC2)cc1", "Potency": "inactive"}, {"molecule": "O=C(COC(=O)c1ccccc1[N+](=O)[O-])Nc1cc(S(=O)(=O)N2CCOCC2)ccc1N1CCCC1", "Potency": "inactive"}, {"molecule": "O=C(Nc1ccc2oc(-c3ccccc3F)nc2c1)c1ccc2c(c1)OCCO2", "Potency": "inconclusive: 12.6 µM [inhibitor, single point]"}, {"molecule": "Cc1ccc(C(=O)c2c(NC(=O)CSc3nnc(N)s3)sc3c2CCCC3)cc1", "Potency": "inconclusive: 3.98 µM [inhibitor, full curve, poor fit]"}, {"molecule": "O=C(NCCCO)c1ccc2[nH]c3ccccc3c2c1", "Potency": "inconclusive: 31.6 µM [inhibitor, single point]"}, {"molecule": "Brc1ccc(-c2csc(/N=C/N3CCCC3)n2)cc1", "Potency": "active: 11.2 µM"}, {"molecule": "O=C(NCC(=O)N1CCN(Cc2ccccc2)CC1)c1ccc(Cl)cc1", "Potency": "inconclusive: 22.4 µM [inhibitor, single point]"}, {"molecule": "COc1ccc(CCNC2=C(Cl)C(=O)N(Cc3ccccc3)C2=O)cc1OC", "Potency": "active: 12.6 µM"}, {"molecule": "Cc1ccccc1N1CCN(c2ncnc3c2cnn3Cc2ccc(Cl)cc2)CC1", "Potency": "inconclusive: 8.91 µM [inhibitor, partial curve]"}]}]}
